Experimental data taken from the supplement of paper PMC3724861.
The list shows a part of the results.

The sequences below were run on T1, Caupolican (Caup) homeodomain DNA-binding domain (assay: PBM E-score (8-mer, recovered from the published 9-mer minima) (E-score (dimensionless, -0.5 to 0.5)); Drosophila protein; higher = stronger relative binding preference, active = 0.31 or more).
T1 sequence: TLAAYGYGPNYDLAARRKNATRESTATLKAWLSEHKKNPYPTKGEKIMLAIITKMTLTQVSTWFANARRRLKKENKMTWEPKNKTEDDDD
In short: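 Caup's homeodomain DNA-binding domain (residues 214-303) was produced by in vitro transcription and translation and applied at 100 nM to custom-designed protein binding microarrays. Each value is an enrichment score giving relative binding preference for a short DNA word; higher means stronger. Published 9-mer scores were the minimum of their two constituent 8-mer scores, and the 8-mer values were recovered from those minima. A cutoff of 0.31 marks candidate binding sequences.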

| Sequence | PBM E-score |
| --- | --- |
| GTGGGAGA | inactive: -0.165 |
| CATCGAGA | inactive: 0.0127 |
| AAAATTGC | inactive: 0.0174 |
| CCGTCGGC | inactive: -0.232 |
| AGCGAGCC | inactive: -0.182 |
| AGAGAGTC | inactive: -0.121 |
| ACCCAAGA | inactive: -0.00931 |
| GACGTACA | inactive: 0.173 |
| GTTTCAGA | inactive: -0.0391 |
| CCAGTCAC | inactive: -0.0969 |
| CGTTACCC | inactive: -0.0963 |
| CTGCGGCA | inactive: -0.131 |
| AACCGCCA | inactive: -0.109 |
| GAAATAGC | inactive: -0.0179 |
| TGATCAAA | inactive: 0.136 |
| ATAGTAAA | inactive: 0.221 |
| CAACCCGG | inactive: -0.188 |
| CATCACGA | inactive: 0.107 |
| CTCTGTCC | inactive: 0.0668 |
| AATGACAG | inactive: 0.219 |
| GACTTGCC | inactive: -0.0874 |
| ACAAGAGA | inactive: 0.203 |
| CTAGGCAA | inactive: -0.109 |
| ATACATTC | active: ≥ 0.314 |
| CGGGTGCA | inactive: -0.214 |

| Sequence | PBM E-score |
| --- | --- |
| GTAACTAA | inactive: 0.116 |
| GACATCAC | inactive: 0.259 |
| CCCCTGCA | inactive: -0.211 |
| CAATGGCC | inactive: -0.187 |
| CAGTGGGC | inactive: -0.216 |
| AATGACTC | inactive: 0.118 |
| CATCTAAC | inactive: 0.0247 |
| CGGTGCTA | inactive: -0.144 |
| CATTGGAG | inactive: -0.0395 |
| CAAACGCA | inactive: -0.0499 |
| AGCCCGGA | inactive: -0.247 |
| CATATTGA | inactive: 0.164 |
| GCGAACCC | inactive: -0.164 |
| AGAAAACT | inactive: 0.0106 |
| ACGTAAAT | inactive: 0.102 |
| AGAGACAC | inactive: 0.0757 |
| ACGGACCC | inactive: -0.139 |
| GGCCGCAA | inactive: -0.224 |
| CGAACGTA | inactive: 0.0606 |
| AATGTCGT | inactive: 0.266 |
| CTGGGTCC | inactive: -0.2 |
| CCATGTCC | inactive: 0.292 |
| GCAGCACC | inactive: -0.101 |
| AGCGCGTC | inactive: -0.132 |
| ACACTAAA | inactive: 0.182 |

| Sequence | PBM E-score |
| --- | --- |
| ACTTCCTA | inactive: 0.0242 |
| CGTTAGAA | inactive: 0.063 |
| CCACGTGA | inactive: -0.0707 |
| ACAGCGAG | inactive: -0.0026 |
| AAAGTCTC | inactive: -0.136 |
| GCAATTGC | inactive: 0.026 |
| TGATTTAA | inactive: 0.174 |
| GGGTGCTA | inactive: -0.00521 |
| GGGGCTAA | inactive: -0.185 |
| AACCTTAA | inactive: -0.0003 |
| CAACAAGC | inactive: 0.202 |
| ATATAGGC | inactive: 0.0531 |
| ACCGAAAA | inactive: 0.072 |
| GCGCGGTA | inactive: -0.0591 |
| AGGGATTG | inactive: -0.0847 |
| GTCAGCCA | inactive: 0.00104 |
| ACACTACC | inactive: 0.0978 |
| AGTGCTAA | inactive: -0.0109 |
| TACCTCCA | ≥ -0.00139 |
| CGACAGGA | inactive: 0.145 |
| AAGCTTAG | inactive: -0.00217 |
| ACCGATCG | inactive: -0.0125 |
| AGTCATAT | inactive: 0.103 |
| CCTGTATA | inactive: 0.142 |
| ACATTAAA | inactive: 0.255 |

| Sequence | PBM E-score |
| --- | --- |
| CCTATTTC | ≥ 0.137 |
| CGTACTCC | inactive: -0.0465 |
| GAGACGTA | inactive: -0.0126 |
| ACCCTATC | inactive: -0.0298 |
| TCTGAGCA | ≥ 0.0229 |
| ATTTGGAG | inactive: -0.129 |
| CATGCACA | inactive: 0.229 |
| GCGCATGA | inactive: -0.159 |
| ATCGCACA | ≥ 0.0699 |
| CTACGAAG | inactive: -0.0135 |
| GGGACTTA | inactive: -0.0424 |
| ACCTACGT | ≥ 0.0774 |
| CAACCCTG | inactive: -0.012 |
| ACGGCGCC | inactive: -0.209 |
| GGATTGTA | inactive: 0.0984 |
| CAATGTTC | inactive: 0.218 |
| ATGCTCTG | inactive: -0.0113 |
| AGCATCCG | inactive: 0.0108 |
| CCTCTCGA | inactive: -0.157 |
| AACGTGGG | inactive: -0.0743 |
| GATAGCCC | inactive: -0.245 |
| AACGTGCA | inactive: 0.105 |
| CCGGCGTA | inactive: -0.129 |
| CCTTCGAG | inactive: -0.182 |
| GATTTTTA | inactive: 0.0485 |

| Sequence | PBM E-score |
| --- | --- |
| CATCTGGA | inactive: -0.00757 |
| AGCTGACT | inactive: -0.0935 |
| CTGTAGTA | active: 0.348 |
| ACGACTCT | ≥ 0.0628 |
| CGATCACC | inactive: -0.072 |
| CTGCGAAA | inactive: -0.04 |
| CTGATATA | inactive: 0.211 |
| GCAGATAC | inactive: 0.03 |
| GTTCATCA | inactive: 0.111 |
| AGCACTAG | inactive: 0.00807 |
| GAGGCTGC | inactive: -0.2 |
| CGAGCCCC | inactive: -0.252 |
| GACTACCA | inactive: 0.106 |
| CCGGGTAA | inactive: -0.0595 |
| ATTGTTGG | inactive: 0.145 |
| AGTGGGAA | inactive: -0.112 |
| CACTCTGA | inactive: 0.0251 |
| CAGTTCGA | inactive: 0.129 |
| GAAGAATC | inactive: -0.119 |
| CTGTATCA | inactive: 0.15 |
| GGGTATAA | inactive: -0.0971 |
| CGGTAGCC | inactive: -0.0876 |
| CTGACTAA | inactive: 0.0361 |
| AACCGTGC | inactive: -0.0695 |
| ACATTCTA | ≥ 0.247 |

| Sequence | PBM E-score |
| --- | --- |
| CCAATAGA | inactive: 0.077 |
| CGATACCA | inactive: 0.0656 |
| GAATATCC | inactive: 0.0199 |
| GGATATCC | inactive: 0.0403 |
| AGACGACT | inactive: 0.0148 |
| CGGAACTA | inactive: -0.0396 |
| CACATTAG | inactive: -0.00577 |
| ATTGCTAA | inactive: 0.0919 |
| AGACCAGA | inactive: 0.0165 |
| AAGCGCAA | inactive: -0.0245 |
| GTAGCTAC | inactive: 0.201 |
| AGCAGTAG | inactive: -0.098 |
| AATGGTCC | inactive: -0.00432 |
| CCGCCTAG | inactive: -0.202 |
| CGCCTGAC | inactive: -0.0938 |
| GTCGAGCA | inactive: -0.0397 |
| ATTCCCTG | inactive: 0.0397 |
| AGGGAGGA | inactive: -0.166 |
| ACTGTGGA | inactive: 0.0533 |
| GATCCGCC | inactive: -0.183 |
| CCCGATCG | inactive: -0.136 |
| ATCTGCGA | inactive: -0.0313 |
| GACCGATA | inactive: -0.016 |
| GAACTGCC | inactive: -0.152 |
| ATGGAGTC | inactive: 0.0444 |

| Sequence | PBM E-score |
| --- | --- |
| AGGGAAAG | inactive: -0.0327 |
| GAAGATAA | inactive: 0.105 |
| AACTTAAG | inactive: 0.0426 |
| CAAGTCAG | inactive: 0.068 |
| CGGTGGAA | inactive: -0.122 |
| CTTGGATC | inactive: 0.0244 |
| ACGCAACT | inactive: -0.0183 |
| AAGGGATA | ≥ 0.0625 |
| AACCAAGA | ≥ 0.0686 |
| CGACAACC | inactive: 0.186 |
| GCAAGCGA | ≥ 0.0812 |
| ATGGACTG | inactive: 0.0602 |
| CTGAAAGC | inactive: -0.0655 |
| AATTTCTC | inactive: -0.0329 |
| AAAGAGCT | inactive: -0.149 |
| AGTTGAAT | inactive: -0.00343 |
| CAGCTCGC | inactive: -0.15 |
| GGGGGTAC | inactive: -0.133 |
| AGCAAAGA | inactive: -0.0865 |
| CGACTACA | inactive: 0.267 |
| AGCTATAG | inactive: -0.0145 |
| GAGTACTA | inactive: 0.182 |
| GAAATTTC | inactive: -0.154 |
| AGGACCGC | inactive: -0.148 |
| CACCAAGA | inactive: 0.00541 |

| Sequence | PBM E-score |
| --- | --- |
| ATTGGTCC | inactive: 0.0248 |
| ATGGCGGA | inactive: -0.154 |
| GCGGATAC | inactive: 0.0482 |
| ATGTGCGA | inactive: 0.0607 |
| CGTGCGCC | inactive: -0.176 |
| CACGCTCA | inactive: 0.0645 |
| AGGAGACT | inactive: -0.0925 |
| AACGTTGG | inactive: -0.00739 |
| AACCCTCC | inactive: -0.204 |
| ATAAGTCG | inactive: -0.0808 |
| AGTGGCAA | inactive: -0.0427 |
| ATTTTTTG | inactive: 0.0886 |
| GCCCAAAA | inactive: -0.0354 |
| CTCCACAA | inactive: -0.00297 |
| CCGAACGG | inactive: -0.0868 |
| GGGTAGGA | inactive: -0.113 |
| CTAAAGGA | inactive: -0.0521 |
| CAATACTA | inactive: 0.11 |
| CAGTCATG | inactive: 0.0102 |
| CATTCTAC | inactive: 0.117 |
| CCCGGGTA | inactive: -0.125 |
| AAACGTTG | inactive: -0.0301 |
| AGCATCGC | inactive: -0.217 |
| AGCGTATG | inactive: 0.0253 |
| GACTCCTA | inactive: -0.0155 |

| Sequence | PBM E-score |
| --- | --- |
| CTTAGAAG | inactive: -0.0266 |
| AACGACTT | inactive: -0.0108 |
| GATCTACC | inactive: 0.00523 |
| CCCCACAG | inactive: -0.143 |
| ACGTCGTG | inactive: 0.0425 |
| AGAGGCTA | inactive: -0.0745 |
| GTAGGCAA | inactive: 0.0144 |
| AGCAATAG | inactive: -0.0263 |
| GTTCCTCA | inactive: -0.0442 |
| ACCGTGCG | inactive: -0.0463 |
| CGGCTTAA | inactive: -0.111 |
| AACATACA | active: 0.361 |
| AGTTTCCA | inactive: 0.0163 |
| ACGTCTTG | inactive: 0.0632 |
| CTATGGAC | inactive: -0.0129 |
| TATCCACA | inactive: 0.0611 |
| ATTGCTGG | inactive: -0.0996 |
| GTACCTAA | inactive: 0.123 |
| AACTCTGG | inactive: -0.0524 |
| ACCCGCCC | inactive: -0.179 |
| AATAATCC | inactive: 0.169 |
| CGTAGCTA | inactive: -0.0527 |
| ACAATCCT | inactive: 0.0955 |
